From the supplement of paper PMC3334620
Over roughly 33,000 sequences, “E-score (-0.5 to 0.5)” has its median near -0.056; the highest 2% begin near 0.38. Some of the results follow.

Each sequence was assayed against Stb4 (UniProt P50104) (assay: PBM E-score (8-mer binding enrichment) (E-score (-0.5 to 0.5)); higher = stronger / more preferred TF binding; most listed sequences are background and not binding sites). Settings: protein concentration: 200 nM; construct: GST-DNA-binding domain.
In short: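 The E-score, a modified Wilcoxon-Mann-Whitney statistic, was computed by the Universal PBM Analysis Suite for every ungapped eight-base word pooled with its reverse complement. Scans behind it were normalised with masliner after bound GST-tagged yeast transcription factors were detected with fluorescent anti-GST. The proteins, at about 100-200 nM, had been applied to universal all-10-mer Agilent arrays made double-stranded by primer extension.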

Row | Sequence | PBM E-score
1 | ATAAAGAT | 0.00558
2 | ACTTAGAC | -0.0631
3 | GCCCTACA | -0.0666
4 | AGCTTGTA | -0.288
5 | ATGGGAAC | -0.0551
6 | ATTCCGAA | 0.464
7 | CCCTATCG | 0.024
8 | ACTTAGTC | -0.0955
9 | CACGGAAC | 0.352
10 | AGAAAGGC | -0.256
11 | CGTATAGA | -0.136
12 | TCTAGCAA | -0.0809
13 | CGTCCTTC | -0.0205
14 | GCATCTAA | 0.0827
15 | ACTTTGAT | -0.156
16 | GAGTGTTA | 0.0282
17 | AAAGTACA | -0.301
18 | ACATCCAC | 0.0415
19 | AGCCGTCC | 0.163
20 | GGTGCTGA | 0.167
21 | AAAAATAG | 0.0724
22 | AATGGTAC | 0.039
23 | CTATGCGC | -0.0143
24 | AGCTCCTA | -0.054
25 | TCTCGCAA | 0.0202

Row | Sequence | PBM E-score
26 | TCTGATCA | -0.0843
27 | GAGGGCTA | -0.195
28 | GAGCATCA | -0.181
29 | AGTAAGCA | -0.155
30 | CAACCTTC | -0.0953
31 | GCTTTTCC | 0.244
32 | CGTGGTGA | -0.132
33 | CCACACAA | -0.292
34 | ACTAGCAA | -0.0688
35 | CATCCAGA | -0.199
36 | AGCCCACT | -0.216
37 | ACCCGATA | 0.349
38 | CGGCGCGA | 0.19
39 | CCACGCCA | -0.364
40 | GCTGGTAC | 0.0995
41 | ACGCGGAC | 0.0769
42 | CTTGTAGC | -0.167
43 | GTCGTAGA | -0.133
44 | AGCCCCCT | -0.312
45 | ACGGTGCT | -0.0775
46 | CGGCAAGA | 0.298
47 | CCGGGTCG | 0.321
48 | GGCACTAA | 0.153
49 | ACCGGATG | 0.385
50 | AGGATGAT | -0.193

Row | Sequence | PBM E-score
51 | CGACGCGA | 0.0647
52 | GGCATCCC | -0.00541
53 | GGCTCAGA | -0.0626
54 | CGAGATCA | 0.0931
55 | CATTGCCA | 0.0541
56 | CCACTCCA | -0.146
57 | CTTCGGGA | 0.439
58 | CCGCGTGA | 0.121
59 | TCAAGCAA | -0.198
60 | AGCCGACG | 0.353
61 | AGTACCTG | -0.265
62 | CCATTCTA | -0.163
63 | ACTTCGTG | -0.0997
64 | ACGCGGCT | 0.123
65 | AGCTACAT | -0.207
66 | CGAAAATC | 0.0705
67 | TATCGTCA | -0.124
68 | GATCCGCA | 0.316
69 | CCCGCATC | 0.101
70 | CCTGACAA | -0.203
71 | CGAACGAC | -0.0483
72 | CCAGGGTC | -0.146
73 | AGGCTGTC | -0.0996
74 | TACGGCAA | 0.215
75 | AAGCGATT | -0.0187

Row | Sequence | PBM E-score
76 | CCATAGTC | -0.171
77 | GAATGGTC | 0.0599
78 | ACAATGGT | -0.216
79 | ACCTGTAC | -0.0504
80 | ATTCCAGG | -0.129
81 | AACCCCAA | -0.0616
82 | GATAAGTA | 0.0852
83 | CCCGTCCA | 0.173
84 | AGACCTCG | 0.162
85 | CTATAAGC | -0.04
86 | AAGAAAAT | 0.142
87 | CAGGTACG | 0.0561
88 | CGCAATCA | -0.00325
89 | CATGCGGG | 0.0495
90 | ATGGCTAC | -0.0728
91 | CAAGCGTC | -0.111
92 | AGGCGGGA | 0.0839
93 | GAGACATC | 0.0952
94 | GACTACTA | -0.154
95 | GTAACCAA | 0.145
96 | ACTTTCAA | 0.117
97 | GATAAGAC | 0.0398
98 | GACGTAAA | 0.112
99 | GCCTGCGC | -0.142
100 | ACACCGGA | 0.312

Row | Sequence | PBM E-score
101 | GCTGCGTA | -0.196
102 | CAGGTGTA | -0.327
103 | GCGCGGAA | 0.338
104 | GTCCAATA | 0.0919
105 | GAAGGGCC | -0.00688
106 | GAGACGCA | 0.0275
107 | CAGTGAAC | -0.179
108 | CGCGAATA | 0.034
109 | CAGACGTC | -0.0928
110 | CAGAAATC | -0.132
111 | ACCCACAG | -0.344
112 | CGATTTTA | 0.0383
113 | CCGTGAAC | 0.0835
114 | AGAAAATC | 0.0513
115 | ACGATTTC | 0.00914
116 | AGATCGAT | -0.16
117 | CAGCGGGA | 0.106
118 | AGTCTCTG | -0.0746
119 | ATCAAGTC | -0.123
120 | ACACACCG | 0.0907
121 | ACGATCTC | -0.0413
122 | AAGAAAAC | 0.151
123 | ATATCGAA | -0.0617
124 | ATACGGAC | 0.0382
125 | CTATGTCC | 0.0466

Row | Sequence | PBM E-score
126 | CCTGGTTC | -0.0191
127 | AAGGTTCT | -0.0262
128 | AGAAGCAT | -0.169
129 | CGTAATGC | 0.0189
130 | AATACCTA | -0.283
131 | TCAAGAAA | -0.0248
132 | AAAGCGAT | -0.0192
133 | CGCTACAG | -0.122
134 | ATGCTACC | 0.138
135 | CACCAAGG | -0.00322
136 | GAGAAAAA | 0.155
137 | TCCGGTAA | 0.352
138 | ATTCGATA | -0.0679
139 | GGAAAAAA | 0.269
140 | CAAGACGC | 0.0175
141 | AGGAAAAA | -0.063
142 | GCCGCAAA | 0.0677
143 | TATTAGAA | -0.00872
144 | ACCCTAAA | 0.0491
145 | GTATACTA | -0.216
146 | GCAGGTAC | 0.0062
147 | ACCATGGG | -0.175
148 | CCCATGGG | 0.0295
149 | GCTCGGAC | 0.391
150 | ATTCTTGC | 0.101

Row | Sequence | PBM E-score
151 | CGTCTGCC | 0.0236
152 | ACATTTCA | 0.0436
153 | AATCCCGA | 0.431
154 | ATAATGCA | -0.16
155 | ATAGTTCA | -0.0585
156 | GCCGGAAC | 0.428
157 | ACACCCGG | 0.331
158 | AGTTGCAT | -0.00988
159 | CGTGGAAA | 0.0527
160 | ACAGCAAA | -0.201
161 | CTTGCTCA | -0.202
162 | ACATACAT | -0.101
163 | AATATGGG | -0.152
164 | AGAGCATA | -0.16
165 | CGCAGCAC | -0.0429
166 | CGTTTAGA | -0.0135
167 | GAGCGCCA | 0.0507
168 | ACTCCATA | -0.175
169 | ATAGCCGC | 0.236
170 | CGTCGACC | -0.15
171 | ACGGCGCG | 0.076
172 | CACCGCAG | 0.0289
